Measured values from patent US9603878B2, “Probiotic and prebiotic compositions, and methods of use thereof for treatment and prevention of graft versus host disease” (Evelo Biosciences, Inc., priority 2014, dated 2017).

Tested on: C57BL/6 mice
Assay type: in vivo, mouse
Settings: 0.25 g/L in drinking water day -7 to day -2; measured 2 days after a 5 day course (day 0)

CCN1CCN(c2cc3c(cc2F)c(=O)c(C(=O)O)cn3C2CC2)CC1 [enro, enrofloxacin, reference compound]
serum endotoxin levels after antibiotic treatment: led to an increase in serum endotoxin levels
